Experimental findings from the supplement of paper PMC9446081 are described below.

The whole screen tested about 39,000 compounds, of which about 220 (0.56%) showed activity. This is one part of the list.
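Further: static incubation at 37 °C against the wild-type strain, values averaged over two biological replicates.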

In the assay the test system is Escherichia coli K-12 BW25113. Description: relative growth (OD600 normalised to plate interquartile mean) (fraction); higher = less growth inhibition, active = 0.2 or less. To be noted: 50 µM; LB; incubation time: overnight (16-24 h).
On to `NCCn1ncccc1=O`, for which the relative growth is inactive: 1.03.

With `CC(C)NC(=O)N(C)C[C@H]1Oc2c(NS(=O)(=O)c3ccc(F)cc3)cccc2C(=O)N([C@@H](C)CO)C[C@H]1C`, the relative growth was inactive: 1.02.

For `CCCCCCCCCCCCN1CCCCCC1=O`, the relative growth is inactive: 1.

For the compound `COc1ccc(S(=O)(=O)Nc2ccc3c(c2)C(=O)N([C@@H](C)CO)C[C@H](C)[C@@H](CN(C)C(=O)c2ccccc2)OCCCC[C@@H](C)O3)cc1`, the relative growth was inactive: 1.01.

For the compound `C[C@H]1CN([C@@H](C)CO)C(=O)c2cccc(NS(C)(=O)=O)c2O[C@@H]1CN(C)C(=O)Nc1ccccc1`, the relative growth was inactive: 1.01.

For the compound `O=C(C[C@@H]1C=C[C@@H](NS(=O)(=O)c2ccccc2)[C@@H](CO)O1)NCc1ccncn1`, the relative growth is inactive: 0.987.

`C[C@H]1CN([C@@H](C)CO)C(=O)Cc2cc(NC(=O)C3CC3)ccc2O[C@@H]1CN(C)S(=O)(=O)c1ccc(Cl)cc1`: the relative growth is inactive: 0.991.

Take `C[C@@H]1CCCCO[C@H](CN(C)Cc2ccc3c(c2)OCO3)[C@H](C)CN([C@@H](C)CO)C(=O)c2cc(NS(=O)(=O)c3ccc(F)cc3)ccc2O1`: the relative growth is inactive: 1.01.

Consider `Cc1noc(C)c1NC(=O)Nc1ccc2c(c1)C(=O)N([C@H](C)CO)C[C@H](C)[C@H](CN(C)Cc1ccc(Oc3ccccc3)cc1)O2`, for which the relative growth is inactive: 1.02.

As for `O=C(CN1CCOCC1)N[C@@H]1CC[C@@H](CCNS(=O)(=O)c2ccccc2F)O[C@H]1CO`, the relative growth was inactive: 1.01.

On to `C[C@@H]1CN([C@@H](C)CO)C(=O)c2cccc(NS(=O)(=O)c3cn(C)cn3)c2O[C@@H]1CN(C)C(=O)NC1CCCCC1`, for which the relative growth was inactive: 0.986.

Take `C[C@@H]1CN([C@H](C)CO)C(=O)c2cc(NS(=O)(=O)c3ccc(Cl)cc3)ccc2O[C@H]1CN(C)Cc1ccc(Cl)c(Cl)c1`: the relative growth was inactive: 0.976.

Take `C[C@@H]1CN([C@@H](C)CO)C(=O)c2cc(NS(=O)(=O)c3ccc(F)cc3)ccc2O[C@@H]1CN(C)S(=O)(=O)c1ccccc1`: the relative growth was inactive: 1.02.

Take `C[C@@H]1CN([C@H](C)CO)C(=O)c2cc(NC(=O)CCCCCC(=O)Nc3ccccc3N)ccc2O[C@@H]1CN(C)C(=O)Nc1ccccc1`: the relative growth is inactive: 1.

In the case of `C[C@@H]1CN([C@@H](C)CO)C(=O)c2cc(NS(=O)(=O)c3ccc(F)cc3)ccc2O[C@@H](C)CCCCO[C@@H]1CN(C)C(=O)Nc1ccc(F)cc1`, the relative growth was inactive: 0.997.

As to `C[C@H](CO)N1C[C@H](C)[C@@H](CN(C)Cc2ccc(Cl)c(Cl)c2)Oc2ccc(NS(=O)(=O)c3cccs3)cc2C1=O`, the relative growth is inactive: 0.998.

`COc1ccc(CN(C)C[C@H]2OCCCC[C@@H](C)Oc3ccc(NS(=O)(=O)c4ccc(Cl)cc4)cc3C(=O)N([C@H](C)CO)C[C@H]2C)cc1`: the relative growth is inactive: 1.01.

As to `C[C@H]1CN([C@@H](C)CO)C(=O)c2cccc(NC(=O)c3cnccn3)c2O[C@H]1CN(C)S(=O)(=O)c1ccc(F)cc1`, the relative growth was inactive: 1.01.

For `C[C@@H]1CN([C@H](C)CO)C(=O)c2cc(NC(=O)Nc3ccccc3)ccc2O[C@@H](C)CCCCO[C@H]1CN(C)Cc1ccccc1`, the relative growth was inactive: 1.02.

In the case of `O=C1C[C@@H]2C(=O)NCCN2C(NC(=O)c2ccccc2)=N1`, the relative growth is inactive: 1.02.

Turning to `C[C@@H]1CN([C@@H](C)CO)C(=O)c2cc(NC(=O)Cc3cn(C)c4ccccc34)ccc2O[C@H]1CN(C)S(C)(=O)=O`, the relative growth is inactive: 0.985.

In the case of `CN1CCN(C(=O)C[C@@H]2CC[C@H]3[C@@H](COC[C@@H](O)CN3CC3CCCC3)O2)CC1`, the relative growth was inactive: 1.

Consider `C[C@H]1CN([C@@H](C)CO)C(=O)c2cc(NS(=O)(=O)c3cccs3)ccc2O[C@H]1CN(C)CC1CC1`, for which the relative growth is inactive: 0.987.

With `Cc1ccc(S(=O)(=O)N(C)C[C@@H]2OCCCC[C@H](C)Oc3ccc(NC(=O)C4CCCCC4)cc3C(=O)N([C@@H](C)CO)C[C@@H]2C)cc1`, the relative growth is inactive: 1.01.

As to `COc1ccc2c(c1)[C@@]1(CC(=O)N(Cc3ccccc3)C1=O)C(=O)N2CCCn1c(=O)n(C)c2ccccc21`, the relative growth was inactive: 1.02.

With `C[C@H](CO)N1C[C@H](C)[C@H](CN(C)C(=O)C2CCCCC2)Oc2cc(C#Cc3ccncc3)ccc2S1(=O)=O`, the relative growth is inactive: 0.975.

In the case of `C[C@@H]1CN([C@H](C)CO)C(=O)c2cc(NC(=O)C3CC3)ccc2O[C@@H]1CN(C)Cc1ccc2c(c1)OCO2`, the relative growth was inactive: 0.999.

Turning to `C[C@H](CO)N1C[C@H](C)[C@H](CN(C)S(=O)(=O)c2ccc(F)cc2)Oc2ccc(NC(=O)Cc3ccccc3)cc2CC1=O`, the relative growth was inactive: 0.99.

As for `C[C@H]1CN([C@@H](C)CO)C(=O)c2cc(NC(=O)Nc3ccc(F)cc3)ccc2O[C@@H]1CN(C)C(=O)Nc1ccc(C(F)(F)F)cc1`, the relative growth is inactive: 1.02.

Take `COCCCCC(=NOCCN)c1ccc(C(F)(F)F)cc1.O=C(O)C=CC(=O)O`: the relative growth was inactive: 0.949.

In the case of `C[C@@H]1CCCCO[C@H](CN(C)C(=O)Nc2ccccc2)[C@@H](C)CN([C@@H](C)CO)C(=O)c2cc(NC(=O)CCC(F)(F)F)ccc2O1`, the relative growth was inactive: 1.02.

Regarding `C[C@H]1CN([C@@H](C)CO)C(=O)c2cc(NC(=O)Nc3cccc4ccccc34)ccc2O[C@H]1CN(C)Cc1ccc(C(=O)Nc2ccccc2N)cc1`, the relative growth is inactive: 1.02.

As to `C[C@@H]1CCCCO[C@H](CN(C)Cc2ccc3c(c2)OCO3)[C@@H](C)CN([C@H](C)CO)C(=O)c2cc(NC(=O)NC3CCCCC3)ccc2O1`, the relative growth is inactive: 0.99.

`COc1cc2c(cc1OC)CN(C(=O)[C@H]1[C@@H]3C(=O)O[C@@H](c4ccccc4)[C@@H](c4ccccc4)N3[C@@H](c3ccccc3OCCO)[C@]13C(=O)Nc1ccc(C#CC4(O)CCCCCC4)cc13)CC2`: the relative growth was inactive: 1.08.

Take `COc1ccc(S(=O)(=O)N(C)C[C@H]2Oc3ccc(NC(=O)Cc4ccccc4)cc3CC(=O)N([C@@H](C)CO)C[C@@H]2C)cc1`: the relative growth is inactive: 1.04.

Turning to `C[C@@H]1CCCCO[C@H](CN(C)C(=O)Nc2cccc3ccccc23)[C@@H](C)CN([C@@H](C)CO)C(=O)c2cc(NS(=O)(=O)c3cn(C)cn3)ccc2O1`, the relative growth is inactive: 1.

For the compound `CC(C)NC(=O)N(C)C[C@@H]1OCCCC[C@@H](C)Oc2ccc(NC(=O)CCCCCC(=O)Nc3ccccc3N)cc2C(=O)N([C@H](C)CO)C[C@@H]1C`, the relative growth was inactive: 0.996.
